The list shows a part of the results. Most values come without repeats; read them as rough.
Experiments:
Assay in all cases: cell count relative to DMSO control; melanoma cells; higher = more viable cells
Conditions in all cases: library dose: standard library concentration; 72 h
SkMel28 = system: SkMel28
SkMel2 = system: SkMel2
SkMel30 = system: SkMel30
SkMel5 = system: SkMel5
UACC257 = system: UACC257
UACC62 = system: UACC62
WM115 = system: WM115
WM1716 = system: WM1716
WM1745 = system: WM1745
WM3526 = system: WM3526
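Further: cells treated in 1,536-well plates, then fixed and DAPI-stained, with nuclei counted from automated high-throughput microscope images.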

SMILES	cell count (SkMel28) [%]	cell count (SkMel2) [%]	cell count (SkMel30) [%]	cell count (SkMel5) [%]	cell count (UACC257) [%]	cell count (UACC62) [%]	cell count (WM115) [%]	cell count (WM1716) [%]	cell count (WM1745) [%]	cell count (WM3526) [%]
C=C(c1ccc(C(=O)O)cc1)c1cc2c(cc1C)C(C)(C)CCC2(C)C [Bexarotene] + Clc1ccc(Nc2nnc(Cc3ccncc3)c3ccccc23)cc1 [vatalanib] (first compound 10 µM, partner dose 10 µM)	81.8	83.1	90.2	69	83.5	78.8	124	82.3	66.8	76.1
CS(=O)(=O)c1ccc(C(=O)Nc2ccc(Cl)c(-c3ccccn3)c2)c(Cl)c1 [vismodegib] + CN1CCN(c2ccc3nc(-c4c(N)c5c(F)cccc5[nH]c4=O)[nH]c3c2)CC1 [Dovitinib] (first compound 5 µM, partner dose 0.5 µM)	62.3	93.9	95	80	76.2	59.1	59.4	65.5	49.5	91.2
NC1(c2ccc(-c3nc4ccn5c(=O)[nH]nc5c4cc3-c3ccccc3)cc2)CCC1 + CC(C)C[C@H](NC(=O)[C@H](Cc1ccccc1)NC(=O)c1cnccn1)B(O)O [Bortezomib] (first compound 2 µM, partner dose 0.005 µM)	19.4	27.6	28.4	19.1	65.6	55.8	15.8	13.3	12.5	24.2
CCCS(=O)(=O)Nc1ccc(F)c(C(=O)c2c[nH]c3ncc(Cl)cc23)c1F + OCc1c[nH]c2ccccc12 [Indole-3-carbinol] (first compound 0.4 µM, partner dose 4 µM)	55.1	87.7	106	82.9	103	60.7	80.8	80.2	76.5	59.2
CS(=O)(=O)c1ccc(C(=O)Nc2ccc(Cl)c(-c3ccccn3)c2)c(Cl)c1 [vismodegib] + C[C@]1(c2nc3c(C(N)=O)cccc3[nH]2)CCCN1 [Veliparib] (first compound 5 µM, partner dose 7 µM)	96.1	112	88.3	73	111	71.4	94.6	104	79.7	97.1
CN(c1ncccc1CNc1nc(Nc2ccc3c(c2)CC(=O)N3)ncc1C(F)(F)F)S(C)(=O)=O + CC(C)(C)c1cnc(CSc2cnc(NC(=O)C3CCNCC3)s2)o1 [SNS-032] (first compound 0.4 µM, partner dose 0.05 µM)	67.7	73.6	88.4	46.5	74.7	56.2	60.4	73.2	46	91.7
NC1(c2ccc(-c3nc4ccn5c(=O)[nH]nc5c4cc3-c3ccccc3)cc2)CCC1 + Cc1ccc(NC(=O)c2cccc(N(C)C)c2)cc1NC(=O)c1ccc(O)cc1 [ZM336372] (first compound 2 µM, partner dose 10 µM)	67.6	95	120	77.9	85.6	78	78.7	96.1	92.8	99
CS(=O)(=O)c1ccc(C(=O)Nc2ccc(Cl)c(-c3ccccn3)c2)c(Cl)c1 [vismodegib] + CNC(=O)c1cc(Oc2ccc(NC(=O)Nc3ccc(Cl)c(C(F)(F)F)c3)cc2)ccn1 [sorafenib] (first compound 5 µM, partner dose 2 µM)	95.9	95.1	99.4	90.3	87.3	98.4	94.9	125	83	95.8
CS(=O)(=O)c1ccc(C(=O)Nc2ccc(Cl)c(-c3ccccn3)c2)c(Cl)c1 [vismodegib] + CN(c1ncccc1CNc1nc(Nc2ccc3c(c2)CC(=O)N3)ncc1C(F)(F)F)S(C)(=O)=O [PF562271] (first compound 5 µM, partner dose 0.4 µM)	74.2	91.8	86.8	69.2	97.4	38	74.5	94.6	66.1	96.5
C=C(c1ccc(C(=O)O)cc1)c1cc2c(cc1C)C(C)(C)CCC2(C)C [Bexarotene] + Cn1c(Nc2ccc(C(F)(F)F)cc2)nc2cc(Oc3ccnc(-c4ncc(C(F)(F)F)[nH]4)c3)ccc21 [CHIR265] (first compound 10 µM, partner dose 0.4 µM)	39.1	54.7	62.8	52.6	92.9	47.4	44.7	66.3	58.1	49
CS(=O)(=O)c1ccc(C(=O)Nc2ccc(Cl)c(-c3ccccn3)c2)c(Cl)c1 [vismodegib] + Cc1nc(Nc2ncc(C(=O)Nc3c(C)cccc3Cl)s2)cc(N2CCN(CCO)CC2)n1 [dasatanib] (first compound 5 µM, partner dose 0.02 µM)	80.8	90.5	104	75.4	85.2	70	66.3	74.8	37.2	75.4
CN(c1ncccc1CNc1nc(Nc2ccc3c(c2)CC(=O)N3)ncc1C(F)(F)F)S(C)(=O)=O + CN(NC(=O)CC(=O)NN(C)C(=S)c1ccccc1)C(=S)c1ccccc1 [STA4783] (first compound 0.4 µM, partner dose 0.03 µM)	46.2	65.9	111	23.9	88.5	25.9	23.7	65.6	16.8	104
C=C(c1ccc(C(=O)O)cc1)c1cc2c(cc1C)C(C)(C)CCC2(C)C [Bexarotene] + C#Cc1cccc(Nc2ncnc3cc(OCCOC)c(OCCOC)cc23)c1 [erlotinib] (first compound 10 µM, partner dose 4 µM)	68.3	80.3	73.9	60.6	84.2	49.4	84.2	66.7	72	67.2
NC1(c2ccc(-c3nc4ccn5c(=O)[nH]nc5c4cc3-c3ccccc3)cc2)CCC1 + COc1cc2c(Oc3ccc4[nH]c(C)cc4c3F)ncnc2cc1OCCCN1CCCC1 [cediranib] (first compound 2 µM, partner dose 2 µM)	48.7	72	87.3	61.7	90.1	84.5	85.1	87.2	71.7	85.2
C=C(c1ccc(C(=O)O)cc1)c1cc2c(cc1C)C(C)(C)CCC2(C)C [Bexarotene] + COc1cc(Nc2ncc(F)c(Nc3ccc4c(n3)NC(=O)C(C)(C)O4)n2)cc(OC)c1OC [Tamatinib] (first compound 10 µM, partner dose 2 µM)	60	67.6	95.5	44.7	69	80.3	70.5	68.3	38.1	69.8
C=C(c1ccc(C(=O)O)cc1)c1cc2c(cc1C)C(C)(C)CCC2(C)C [Bexarotene] + O=C(O)c1ccc(-c2c[nH]c3ncc(-c4ccccc4)cc23)cc1C1CCCC1 [GSK650394] (first compound 10 µM, partner dose 0.8 µM)	79.5	75.5	113	98.7	71.7	78.4	90.2	73.6	75.5	92.3
CCCS(=O)(=O)Nc1ccc(F)c(C(=O)c2c[nH]c3ncc(Cl)cc23)c1F + CN(NC(=O)CC(=O)NN(C)C(=S)c1ccccc1)C(=S)c1ccccc1 [STA4783] (first compound 0.4 µM, partner dose 0.03 µM)	13.7	66.2	72.6	30.5	85.9	34.8	18.8	69.8	24.5	48.5
NC1(c2ccc(-c3nc4ccn5c(=O)[nH]nc5c4cc3-c3ccccc3)cc2)CCC1 + NC(=O)Nc1cc(-c2cccc(F)c2)sc1C(=O)N[C@H]1CCCNC1 [AZD7762] (first compound 2 µM, partner dose 0.1 µM)	32.3	66.2	72.1	50.8	83.1	47.1	53.5	55.3	89.4	42.1
CN(c1ncccc1CNc1nc(Nc2ccc3c(c2)CC(=O)N3)ncc1C(F)(F)F)S(C)(=O)=O + CN(C)S(=O)(=O)c1ccc2c(c1)/C(=C/c1cc3c([nH]1)CCCC3)C(=O)N2 [SU6656] (first compound 0.4 µM, partner dose 2 µM)	41.4	72	73.1	64.7	70.8	83.1	43.5	72.5	42	75.1
CN(c1ncccc1CNc1nc(Nc2ccc3c(c2)CC(=O)N3)ncc1C(F)(F)F)S(C)(=O)=O + Nc1nc(F)nc2c1ncn2[C@@H]1O[C@H](CO)[C@@H](O)[C@@H]1O [fludarabine] (first compound 0.4 µM, partner dose 1 µM)	0.659	0.87	10.2	21.1	36.8	79.8	69	46.1	50.1	17.5
NC1(c2ccc(-c3nc4ccn5c(=O)[nH]nc5c4cc3-c3ccccc3)cc2)CCC1 + CC(C)(C)c1cnc(CSc2cnc(NC(=O)C3CCNCC3)s2)o1 [SNS-032] (first compound 2 µM, partner dose 0.05 µM)	40.6	61	97.8	61.4	102	87.4	46.9	67.9	68.7	77.3
CCCS(=O)(=O)Nc1ccc(F)c(C(=O)c2c[nH]c3ncc(Cl)cc23)c1F + O=C(Nc1cccc(Cl)c1)Nc1ncc(CCNc2ncnc3ccsc23)s1 [SNS314] (first compound 0.4 µM, partner dose 0.004 µM)	42.7	79.2	109	119	74	54.3	47.1	52	71.3	69.3

Source: the supplement of paper PMC4604168 (melanoma cell lines)
